Read-outs that look alike come from different tables or passages of the source. These are yes or no findings as the source states them, for the method shown. In cells and extracts the contact can be indirect. Some entries that bind do so weakly or less than the wild type. For some assays here: Where a sequence is shown, tags or fusion partners need not be part of it.
Key:
[1] = molecular target: T1, HCMV immediate-early (IE) 1 protein, wild type (Towne) (human cytomegalovirus (Towne)) (UniProt P03169); test: co-IP; HF cells infected with HCMV (Towne) wild-type (MOI 2, 24 h) or with wild-type, IE1(Δ290–320) or IE1(Δ421–475) virus (MOI 2, 12 h); total lysates immunoprecipitated with anti-IE1 antibody (CH443), mouse IgG as control; immunoblot
T1 sequence: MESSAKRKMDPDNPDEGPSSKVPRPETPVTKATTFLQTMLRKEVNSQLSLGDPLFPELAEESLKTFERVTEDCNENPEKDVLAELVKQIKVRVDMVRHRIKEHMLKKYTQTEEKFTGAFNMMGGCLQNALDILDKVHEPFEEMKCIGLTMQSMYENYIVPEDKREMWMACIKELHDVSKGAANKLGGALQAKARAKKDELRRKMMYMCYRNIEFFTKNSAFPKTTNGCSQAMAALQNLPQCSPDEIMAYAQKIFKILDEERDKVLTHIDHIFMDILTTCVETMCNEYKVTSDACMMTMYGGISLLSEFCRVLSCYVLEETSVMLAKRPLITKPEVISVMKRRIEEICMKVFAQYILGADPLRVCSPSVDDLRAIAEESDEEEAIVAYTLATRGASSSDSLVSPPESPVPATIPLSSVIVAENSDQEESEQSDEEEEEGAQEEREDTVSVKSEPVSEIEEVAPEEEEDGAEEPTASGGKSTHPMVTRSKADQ

Protein sequences, listed by entry. Tags and fused reporters are not part of them.
UniProt P29590: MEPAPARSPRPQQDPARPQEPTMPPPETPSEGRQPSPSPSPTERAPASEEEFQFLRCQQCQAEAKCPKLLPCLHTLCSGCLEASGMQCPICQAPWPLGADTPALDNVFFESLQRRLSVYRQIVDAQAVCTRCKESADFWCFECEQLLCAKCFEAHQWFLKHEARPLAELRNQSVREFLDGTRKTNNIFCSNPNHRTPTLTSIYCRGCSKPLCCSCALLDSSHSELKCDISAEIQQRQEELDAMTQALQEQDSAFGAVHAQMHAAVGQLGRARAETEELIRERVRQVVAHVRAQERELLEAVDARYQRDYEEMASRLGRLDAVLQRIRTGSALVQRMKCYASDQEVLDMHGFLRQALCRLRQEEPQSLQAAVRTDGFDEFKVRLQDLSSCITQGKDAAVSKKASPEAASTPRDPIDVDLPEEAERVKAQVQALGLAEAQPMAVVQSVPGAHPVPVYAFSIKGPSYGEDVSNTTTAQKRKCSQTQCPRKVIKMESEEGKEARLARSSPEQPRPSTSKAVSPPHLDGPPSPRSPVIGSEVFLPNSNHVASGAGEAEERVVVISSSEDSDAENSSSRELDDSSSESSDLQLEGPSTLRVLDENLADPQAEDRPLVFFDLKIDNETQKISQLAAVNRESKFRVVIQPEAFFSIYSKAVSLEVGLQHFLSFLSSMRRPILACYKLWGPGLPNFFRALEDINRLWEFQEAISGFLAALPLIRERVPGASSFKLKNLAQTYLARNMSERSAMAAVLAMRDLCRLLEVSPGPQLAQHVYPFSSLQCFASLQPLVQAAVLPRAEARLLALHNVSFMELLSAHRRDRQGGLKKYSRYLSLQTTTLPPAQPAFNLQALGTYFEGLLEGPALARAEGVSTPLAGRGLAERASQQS
UniProt Q13547: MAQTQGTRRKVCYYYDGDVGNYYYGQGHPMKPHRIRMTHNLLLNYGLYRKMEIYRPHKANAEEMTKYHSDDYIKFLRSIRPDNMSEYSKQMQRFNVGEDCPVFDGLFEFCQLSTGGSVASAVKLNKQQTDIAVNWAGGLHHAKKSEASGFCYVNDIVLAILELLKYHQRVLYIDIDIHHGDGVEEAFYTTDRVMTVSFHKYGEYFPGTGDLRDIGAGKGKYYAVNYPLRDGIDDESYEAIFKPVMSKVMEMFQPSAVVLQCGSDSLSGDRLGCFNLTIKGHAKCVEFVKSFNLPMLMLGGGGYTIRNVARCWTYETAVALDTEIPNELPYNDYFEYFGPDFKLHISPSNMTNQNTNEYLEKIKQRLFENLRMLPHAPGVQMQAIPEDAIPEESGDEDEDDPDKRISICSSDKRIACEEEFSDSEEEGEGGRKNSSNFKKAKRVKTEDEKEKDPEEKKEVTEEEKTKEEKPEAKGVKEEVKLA
UniProt Q9UBN7: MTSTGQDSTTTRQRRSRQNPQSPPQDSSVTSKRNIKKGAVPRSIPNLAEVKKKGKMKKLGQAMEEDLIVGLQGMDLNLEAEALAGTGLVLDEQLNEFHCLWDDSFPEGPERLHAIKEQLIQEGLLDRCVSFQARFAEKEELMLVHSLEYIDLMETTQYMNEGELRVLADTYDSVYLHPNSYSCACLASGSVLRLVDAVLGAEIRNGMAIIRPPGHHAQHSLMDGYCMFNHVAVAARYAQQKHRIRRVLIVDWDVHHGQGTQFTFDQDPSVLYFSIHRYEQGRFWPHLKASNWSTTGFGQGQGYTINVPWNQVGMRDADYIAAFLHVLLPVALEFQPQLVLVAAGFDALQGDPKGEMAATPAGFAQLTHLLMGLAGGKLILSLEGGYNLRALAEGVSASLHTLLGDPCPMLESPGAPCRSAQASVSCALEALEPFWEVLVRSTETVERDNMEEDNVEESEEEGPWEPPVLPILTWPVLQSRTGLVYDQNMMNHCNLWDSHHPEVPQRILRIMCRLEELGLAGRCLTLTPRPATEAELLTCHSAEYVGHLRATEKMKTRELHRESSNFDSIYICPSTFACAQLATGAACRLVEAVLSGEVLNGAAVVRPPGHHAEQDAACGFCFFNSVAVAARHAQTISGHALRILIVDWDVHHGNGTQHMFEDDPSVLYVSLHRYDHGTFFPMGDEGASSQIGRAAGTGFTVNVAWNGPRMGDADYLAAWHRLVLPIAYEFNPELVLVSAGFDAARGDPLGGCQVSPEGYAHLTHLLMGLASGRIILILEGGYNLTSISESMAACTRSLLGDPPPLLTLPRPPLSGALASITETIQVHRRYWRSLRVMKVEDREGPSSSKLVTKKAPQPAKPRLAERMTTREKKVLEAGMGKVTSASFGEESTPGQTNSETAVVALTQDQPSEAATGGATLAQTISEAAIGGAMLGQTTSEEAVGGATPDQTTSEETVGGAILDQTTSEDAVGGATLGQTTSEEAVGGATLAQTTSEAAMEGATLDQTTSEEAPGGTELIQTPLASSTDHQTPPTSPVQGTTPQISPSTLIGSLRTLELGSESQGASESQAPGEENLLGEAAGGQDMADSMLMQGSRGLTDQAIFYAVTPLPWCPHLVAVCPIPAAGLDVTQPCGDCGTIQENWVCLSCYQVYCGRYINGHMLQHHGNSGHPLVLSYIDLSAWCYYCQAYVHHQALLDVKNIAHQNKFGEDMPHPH
UniProt Q92769: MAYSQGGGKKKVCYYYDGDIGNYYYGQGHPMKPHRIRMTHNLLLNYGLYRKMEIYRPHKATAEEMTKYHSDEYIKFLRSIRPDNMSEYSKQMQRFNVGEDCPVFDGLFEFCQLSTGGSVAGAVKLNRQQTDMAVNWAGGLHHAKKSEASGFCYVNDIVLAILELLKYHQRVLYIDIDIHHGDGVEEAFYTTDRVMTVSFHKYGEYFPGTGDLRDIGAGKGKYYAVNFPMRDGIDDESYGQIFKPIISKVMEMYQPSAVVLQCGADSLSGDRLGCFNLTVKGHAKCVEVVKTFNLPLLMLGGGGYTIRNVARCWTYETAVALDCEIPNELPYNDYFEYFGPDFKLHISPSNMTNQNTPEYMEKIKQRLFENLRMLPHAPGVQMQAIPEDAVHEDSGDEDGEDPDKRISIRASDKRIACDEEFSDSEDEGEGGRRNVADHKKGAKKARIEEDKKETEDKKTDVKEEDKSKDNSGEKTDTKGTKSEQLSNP
UniProt O15379: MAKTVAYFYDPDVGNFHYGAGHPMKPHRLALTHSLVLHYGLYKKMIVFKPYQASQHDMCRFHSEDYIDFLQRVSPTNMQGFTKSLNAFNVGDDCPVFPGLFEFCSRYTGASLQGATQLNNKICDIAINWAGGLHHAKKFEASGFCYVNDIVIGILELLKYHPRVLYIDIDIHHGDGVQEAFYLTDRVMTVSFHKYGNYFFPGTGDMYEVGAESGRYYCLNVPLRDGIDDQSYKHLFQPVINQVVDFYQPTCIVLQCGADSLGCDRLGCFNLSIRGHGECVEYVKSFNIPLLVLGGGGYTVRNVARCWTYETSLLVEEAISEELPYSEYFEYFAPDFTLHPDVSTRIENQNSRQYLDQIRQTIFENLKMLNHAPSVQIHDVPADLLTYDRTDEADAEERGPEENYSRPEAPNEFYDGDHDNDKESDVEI
UniProt P52630: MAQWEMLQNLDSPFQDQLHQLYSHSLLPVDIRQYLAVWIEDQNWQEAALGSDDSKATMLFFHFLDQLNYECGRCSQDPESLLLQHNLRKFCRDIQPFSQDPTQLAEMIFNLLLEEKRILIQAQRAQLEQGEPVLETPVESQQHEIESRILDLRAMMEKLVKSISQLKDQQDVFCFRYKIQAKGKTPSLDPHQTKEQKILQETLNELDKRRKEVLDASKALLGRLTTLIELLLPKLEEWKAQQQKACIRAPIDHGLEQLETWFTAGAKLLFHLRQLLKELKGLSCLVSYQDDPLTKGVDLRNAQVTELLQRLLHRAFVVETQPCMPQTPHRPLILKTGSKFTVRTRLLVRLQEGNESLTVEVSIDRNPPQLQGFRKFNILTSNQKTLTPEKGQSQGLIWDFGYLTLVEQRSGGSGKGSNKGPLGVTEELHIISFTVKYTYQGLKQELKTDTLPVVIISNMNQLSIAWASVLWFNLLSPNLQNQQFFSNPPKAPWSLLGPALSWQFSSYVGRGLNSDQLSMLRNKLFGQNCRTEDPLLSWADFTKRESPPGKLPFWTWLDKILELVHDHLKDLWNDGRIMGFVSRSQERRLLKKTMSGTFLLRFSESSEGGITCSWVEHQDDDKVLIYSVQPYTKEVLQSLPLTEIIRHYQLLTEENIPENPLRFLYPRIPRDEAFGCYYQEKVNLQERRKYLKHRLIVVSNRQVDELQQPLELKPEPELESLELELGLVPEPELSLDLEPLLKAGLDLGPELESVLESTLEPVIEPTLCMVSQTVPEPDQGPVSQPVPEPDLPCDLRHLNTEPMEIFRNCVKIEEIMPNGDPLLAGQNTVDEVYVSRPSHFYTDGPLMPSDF
UniProt P42224: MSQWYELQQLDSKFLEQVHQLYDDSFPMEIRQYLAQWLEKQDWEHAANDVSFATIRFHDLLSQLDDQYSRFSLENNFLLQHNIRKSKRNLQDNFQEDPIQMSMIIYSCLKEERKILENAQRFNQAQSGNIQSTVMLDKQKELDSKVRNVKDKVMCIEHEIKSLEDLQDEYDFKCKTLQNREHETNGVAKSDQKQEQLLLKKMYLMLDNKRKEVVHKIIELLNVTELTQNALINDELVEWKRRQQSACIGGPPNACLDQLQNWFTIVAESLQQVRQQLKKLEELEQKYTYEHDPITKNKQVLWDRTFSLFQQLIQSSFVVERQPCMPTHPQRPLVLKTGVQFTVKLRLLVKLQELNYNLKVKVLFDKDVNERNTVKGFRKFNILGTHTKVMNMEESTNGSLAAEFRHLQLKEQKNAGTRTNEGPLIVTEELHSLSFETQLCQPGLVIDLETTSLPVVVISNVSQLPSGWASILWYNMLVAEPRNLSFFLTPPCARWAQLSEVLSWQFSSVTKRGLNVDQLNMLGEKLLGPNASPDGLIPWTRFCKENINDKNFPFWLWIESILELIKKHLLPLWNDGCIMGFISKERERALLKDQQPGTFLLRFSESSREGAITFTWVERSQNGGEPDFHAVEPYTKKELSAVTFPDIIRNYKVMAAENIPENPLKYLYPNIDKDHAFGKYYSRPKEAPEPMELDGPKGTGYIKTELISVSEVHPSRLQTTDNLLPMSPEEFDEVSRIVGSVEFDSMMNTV

[2] = molecular target: Promyelocytic leukemia protein (PML) (human (endogenous in HF)) (UniProt P29590); test: co-IP; uninfected (mock-infected) HF cells; total lysates immunoprecipitated with anti-PML antibody (PG-M3); immunoblot
[3] = molecular target: Promyelocytic leukemia protein (PML) (human (endogenous in HF)) (UniProt P29590); test: co-IP; HF cells infected with UV-HCMV (MOI 3, 8 h) or treated with IFNβ (1 x 10^3 units/ml, 8 h); total lysates, also treated with DNase and RNase; immunoprecipitated with anti-PML antibody (PG-M3), mouse IgG as control; immunoblot
[4] = molecular target: IE1(Δ290–320), expressed from mutant HCMV (Towne) (human cytomegalovirus (Towne)) (UniProt P03169); test: co-IP; HF cells infected with HCMV (Towne) wild-type (MOI 2, 24 h) or with wild-type, IE1(Δ290–320) or IE1(Δ421–475) virus (MOI 2, 12 h); total lysates immunoprecipitated with anti-IE1 antibody (CH443), mouse IgG as control; immunoblot
[5] = molecular target: IE1(Δ421–475), expressed from mutant HCMV (Towne) (human cytomegalovirus (Towne)) (UniProt P03169); test: as above
[6] = molecular target: myc-HDAC1 (UniProt Q13547); test: co-IP; 293T cells cotransfected with HA-IE1 (wild type or mutant) and myc-tagged partner; at 48 h whole cell lysates immunoprecipitated with anti-Myc antibody and immunoblotted with anti-HA antibody
[7] = molecular target: myc-HDAC6 (UniProt Q9UBN7); test: as above
[8] = molecular target: myc-HDAC2 (UniProt Q92769); test: as above
[9] = molecular target: myc-HDAC3 (UniProt O15379); test: as above
[10] = molecular target: myc-STAT2 (UniProt P52630); test: as above
[11] = molecular target: myc-HDAC1 (UniProt Q13547); test: as above; remark: listed apart in the source
[12] = molecular target: myc-HDAC6 (UniProt Q9UBN7); test: as above; remark: listed apart in the source
[13] = molecular target: myc-HDAC2 (UniProt Q92769); test: as above; remark: listed apart in the source
[14] = molecular target: myc-HDAC3 (UniProt O15379); test: as above; remark: listed apart in the source
[15] = molecular target: myc-STAT2 (UniProt P52630); test: as above; remark: listed apart in the source

STAT1 (from UniProt P42224 1-750)
binding [1]: binds | binding [2]: no binding (condition: uninfected cells) | binding [3]: binds

HDAC2 (from UniProt Q92769 1-488) (enzyme)
binding [1]: binds | binding [4]: binds | binding [5]: binds | binding [2]: no binding (condition: uninfected cells) | binding [3]: binds

HA-IE1(Δ290–320) (from UniProt P03169 1-491)
binding [6]: binds | binding [7]: binds | binding [8]: binds | binding [9]: binds

STAT2 (from UniProt P52630 1-851)
binding [1]: binds | binding [4]: binds | binding [5]: no binding | binding [2]: no binding (condition: uninfected cells) | binding [3]: binds

HDAC1 (from UniProt Q13547 1-482) (enzyme)
binding [1]: binds | binding [4]: binds | binding [5]: binds | binding [2]: no binding (condition: uninfected cells) | binding [3]: binds

Promyelocytic leukemia protein (PML) (from UniProt P29590 1-882)
binding [1]: binds

HA-IE1(L174P) (from UniProt P03169 1-491)
binding [10]: binds

HA-IE1(Δ290–320/Δ421–475) (from UniProt P03169 1-491)
binding [6]: binds | binding [7]: binds | binding [8]: binds | binding [9]: binds

B1: HA-IE1 (wild type) (protein, UniProt P03169 1-491)
chain: T1 sequence
binding [11]: binds | binding [12]: binds | binding [13]: binds | binding [14]: binds | binding [15]: binds

B2: IFN regulatory factor 9 (IRF9) (protein, UniProt Q00978 1-393)
chain: MASGRARCTRKLRNWVVEQVESGQFPGVCWDDTAKTMFRIPWKHAGKQDFREDQDAAFFKAWAIFKGKYKEGDTGGPAVWKTRLRCALNKSSEFKEVPERGRMDVAEPYKVYQLLPPGIVSGQPGTQKVPSKRQHSSVSSERKEEEDAMQNCTLSPSVLQDSLNNEEEGASGGAVHSDIGSSSSSSSPEPQEVTDTTEAPFQGDQRSLEFLLPPEPDYSLLLTFIYNGRVVGEAQVQSLDCRLVAEPSGSESSMEQVLFPKPGPLEPTQRLLSQLERGILVASNPRGLFVQRLCPIPISWNAPQAPPGPGPHLLPSNECVELFRTAYFCRDLVRYFQGLGPPPKFQVTLNFWEESHGSSHTPQNLITVKMEQAFARYLLEQTPEQQAAILSLV
binding [3]: no binding

B3: ribonucleotide reductase R1 (enzyme, UniProt P23921 1-792)
chain: MHVIKRDGRQERVMFDKITSRIQKLCYGLNMDFVDPAQITMKVIQGLYSGVTTVELDTLAAETAATLTTKHPDYAILAARIAVSNLHKETKKVFSDVMEDLYNYINPHNGKHSPMVAKSTLDIVLANKDRLNSAIIYDRDFSYNYFGFKTLERSYLLKINGKVAERPQHMLMRVSVGIHKEDIDAAIETYNLLSERWFTHASPTLFNAGTNRPQLSSCFLLSMKDDSIEGIYDTLKQCALISKSAGGIGVAVSCIRATGSYIAGTNGNSNGLVPMLRVYNNTARYVDQGGNKRPGAFAIYLEPWHLDIFEFLDLKKNTGKEEQRARDLFFALWIPDLFMKRVETNQDWSLMCPNECPGLDEVWGEEFEKLYASYEKQGRVRKVVKAQQLWYAIIESQTETGTPYMLYKDSCNRKSNQQNLGTIKCSNLCTEIVEYTSKDEVAVCNLASLALNMYVTSEHTYDFKKLAEVTKVVVRNLNKIIDINYYPVPEACLSNKRHRPIGIGVQGLADAFILMRYPFESAEAQLLNKQIFETIYYGALEASCDLAKEQGPYETYEGSPVSKGILQYDMWNVTPTDLWDWKVLKEKIAKYGIRNSLLIAPMPTASTAQILGNNESIEPYTSNIYTRRVLSGEFQIVNPHLLKDLTERGLWHEEMKNQIIACNGSIQSIPEIPDDLKQLYKTVWEISQKTVLKMAAERGAFIDQSQSLNIHIAEPNYGKLTSMHFYGWKQGLKTGMYYLRTRPAANPIQFTLNKEKLKDKEKVSKEEEEKERNTAAMVCSLENRDECLMCGS
binding [3]: no binding

Reference: PMC4374831
